Test results as given in PubChem BioAssay AID1345082 (National Center for Advancing Translational Sciences (NCATS), 2018).
Where “and” joins values, the source holds several entries; their conditions need not be identical. Identical values can stand only once. In all, about 94,000 compounds went through this assay and about 4,000 (4.3%) were called active. This list was built around the results that the source calls inconclusive (neither active nor inactive); the mix of calls is not that of the screen. Calls follow the shape of the dose curve; as a rule, active = well fitted inhibition curve with a large enough effect; inconclusive = small, poorly fitted or top-dose-only effect; inactive = no such curve, though single readings can be large or run the other way. Potencies beside an inconclusive call are fits to weak or partial responses and may not hold up.

assay: Cytotoxic Profiling in NIH 3T3 Cell Line of Diverse Libraries Using Quantitative High-Throughput Screening; details: NIH 3T3 viability, CellTiter-Glo ATP luminescence, 48-72 h; series mostly up to 96.7 µM; also: nearly all actives have a fitted effect of over 55% in size
Method in brief: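 First NIH 3T3 cells are plated at 400 cells/well; next compound is pinned in; then plates incubate 48 or 72 hr at 37 °C; finally CellTiter-Glo is added and luminescence read after 10 min.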
Potency is read from the fitted curve at half-maximal effect; tags tell the direction and shape of the fitted curve.

SMILES | Potency
O=C(NC1CCCN(Cc2ccc(-c3cncnc3)cc2)C1)c1ccncc1 (stereo not drawn) | inactive
CN1C(=O)C2(CCN(C(=O)CCC3CCCCC3)CC2)c2ccccc21 | inconclusive: 50.1 µM [inhibitor, partial curve, poor fit]
COc1ccc(N2CCOC3CCN(Cc4ccc(C(C)C)cc4)CC3C2=O)cc1 (stereo not drawn) | inconclusive: 89.1 µM [inhibitor, partial curve]
COc1ccc(Nc2nc(-c3c(C)noc3C)cc3cc(CN(C)C)oc23)cn1 | active: 79.4 µM
COc1ccc(C(=O)N2CCn3c(nnc3-c3ccccc3)C2)cc1 | inactive
O=C(c1ccc(Cl)cc1)N1CC2(CCN(Cc3ccccn3)CC2)Cc2ccccc21 | inconclusive: 50.1 µM [inhibitor, partial curve, poor fit]
CC(C)(C)C(=O)NC1CCN(Cc2ccc(-c3ccsc3)cc2)C1 (stereo not drawn) | inconclusive: 50.1 µM [inhibitor, partial curve, poor fit]
CC(C)c1ccc(C(=O)NC[C@@H]2CC[C@H]3C[C@@H]2C3(C)C)cc1 | inconclusive: 89.1 µM [inhibitor, partial curve]
CCNC(=O)N[C@@H]1C=C[C@@H](c2c(C)nn(-c3ccc(C(C)(C)C)cc3)c2C)C1 | inconclusive: 12.6 µM [inhibitor, full curve, poor fit]
Cc1cccc2c1O[C@H]1[C@H](CO)CN([S+](=O)([O-])c3ccccc3)[C@@H]21 | inconclusive: 44.7 µM [inhibitor, partial curve, poor fit]
c1ccc(-c2ncn(CC3CCCO3)c2-c2cccc3cnccc23)cc1 (stereo not drawn) | inconclusive: 3.55 µM [inhibitor, full curve, poor fit]
CCc1nc(-c2c3n(c(=O)n(CC(=O)Nc4cccc(F)c4)c2=O)CCCCC3)no1 | inactive
Cc1ncsc1CCNC(=O)c1ccc2nc(-c3ccccc3)cn2c1 | inconclusive: 50.1 µM [inhibitor, partial curve, poor fit]
c1ccc(N2CCCC2)c(-c2nc(C3CCOC3)no2)c1 (stereo not drawn) | inconclusive: 50.1 µM [inhibitor, partial curve]
CN1C(=O)CCC2(CNC(=O)CCc3ccccc3)CCC=C12 (stereo not drawn) | inactive
O=C(C1CCCC1)N1CCC(C2CCN(Cc3cccc(F)c3F)CC2)C1 (stereo not drawn) | inconclusive: 50.1 µM [inhibitor, partial curve, poor fit]
COc1ccc(CNC(=O)[C@@H]2CCC[C@@H](NCc3cccc(Cl)c3)CN(C)C(=O)C2)cc1 | inconclusive: 56.2 µM [inhibitor, partial curve, poor fit]
O=C(NCc1cccnc1)c1nc(-c2ccccc2)c2ccccn12 | inconclusive: 56.2 µM [inhibitor, partial curve, poor fit]
O=C(Cc1ccccn1)NCCNC(=O)c1cccc(-c2ccsc2)c1 | inactive
CCOC(=O)C1(Cc2ccc(F)cc2F)CCCN(C(=O)Nc2ccc3c(c2)OCO3)C1 (stereo not drawn) | inconclusive: 50.1 µM [inhibitor, partial curve, poor fit]
O=C(C1CCCC1)N1CC2(CCN(C3CCCCC3)CC2)Cc2ccccc21 | inconclusive: 39.8 µM [inhibitor, partial curve]

SMILES | Potency
COc1cccc(N2C(=O)NC(=NC3CCCC3)C23CCN(C(=O)c2ccccc2F)C3)c1 (stereo not drawn) | inconclusive: 56.2 µM [inhibitor, partial curve, poor fit]
CCOc1ccc(NC(=O)Cn2c(-c3ccccc3)nc(C)cc2=O)cc1 | inconclusive: 31.6 µM [inhibitor, full curve]
COc1ccc(-c2ccnc3nc(Cc4cc(F)cc(F)c4)nn23)c(F)c1 | inconclusive: 39.8 µM [inhibitor, partial curve, poor fit]
CC(C)[S+](=O)([O-])N1CCC2OCCN(Cc3ccccc3F)C(=O)C2C1 (stereo not drawn) | inactive
CCOC(=O)[C@H]1[C@@H](O)C(=O)N(C(C)C)C12CCN(C(=O)c1ccc(NC(C)=O)cc1)CC2 | inconclusive: 50.1 µM [inhibitor, partial curve, poor fit]
COc1ccc(NC(=O)c2cnc3c(c2)N(C(=O)Cc2ccccc2OC)CCC3)cn1 | inconclusive: 100 µM [inhibitor, single point]
Cc1ccc(C(=O)N2CCCC(C(=O)N3CCC4(CC3)CC(=O)Nc3ccccc3O4)C2)cc1 (stereo not drawn) | inactive
Clc1ccc(-c2nnc3n2CCN(Cc2ccsc2)C3)cc1 | inconclusive: 39.8 µM [inhibitor, full curve]
COc1cccc(CN2CCc3nc(C(=O)NCC4CC4)oc3CC2)c1 | inconclusive: 63.1 µM [inhibitor, partial curve, poor fit]
COCCn1cnc2ccc(-c3cccc(O)c3)nc2c1=O | active: 22.4 µM
CN(Cc1ccccc1)C(=O)[C@@H]1CCCN1c1ccnc2ccnn12 | inconclusive: 14.1 µM [inhibitor, partial curve, poor fit]
O[C@H]1[C@@H]2CN(Cc3ccccc3)C[C@@H]2[C@@H]2O[C@H]1C[C@@H]2c1cccc(F)c1 | inconclusive: 50.1 µM [inhibitor, partial curve, poor fit]
Cc1ccccc1C(=O)NC1CCN(c2cc(-c3ccccc3)[nH]n2)C1 (stereo not drawn) | inactive
O=C(NCc1ccc(Cl)cc1)c1noc(-c2ccc3c(c2)OCO3)n1 | inconclusive: 44.7 µM [inhibitor, partial curve, poor fit]
COc1ccc(CN2Cc3cc(NC(=O)Cc4cccs4)ccc3OC(C)C2=O)cc1 (stereo not drawn) | inconclusive: 50.1 µM [inhibitor, partial curve, poor fit]
O=C(Cc1cccc(Cl)c1)NC1CCN(c2nc3ncccc3o2)CC1 | inactive and inconclusive: 63.1 µM [inhibitor, partial curve, poor fit]
COCC1CCN(Cc2cc3ccc(OC)cc3nc2-c2cccc(C)c2)C1 (stereo not drawn) | inconclusive: 3.16 µM [inhibitor, full curve, poor fit]
COc1ccc(/C=C/c2ccc3c(c2)C(=O)N2C[C@@H](NC(=O)c4cccn4C)C[C@H]2C(=O)N3)cc1 | inconclusive: 79.4 µM [inhibitor, single point]
O=C(N[C@@H]1CCN(C(=O)Cc2noc3ccccc23)C[C@H]1O)c1cccnc1 | inactive
COc1cccc(C(=O)N2CC(=O)N(Cc3ccccc3)CC(O)C2)c1 (stereo not drawn) | inconclusive: 50.1 µM [inhibitor, partial curve, poor fit]
COc1ccc(Nc2cc3c(cn2)NCCN(Cc2ccccc2)C3)cn1 | inconclusive: 56.2 µM [inhibitor, partial curve, poor fit]

SMILES | Potency
Cc1ccc(F)cc1S(=O)(=O)N1CCC(OC2CCN(Cc3ccccc3)CC2)CC1 | active: 35.5 µM
Cc1ccc(C)c(C(O)Cn2ccn3nc(-c4cccc(Br)c4)cc3c2=O)c1 (stereo not drawn) | inconclusive: 50.1 µM [inhibitor, partial curve, poor fit]
COCCN1CCCC2(CCN(C(=O)CCn3cncn3)C2)C1=O (stereo not drawn) | inactive
COC(=O)CNC(=O)c1cc(-c2ccc(C)cc2C)nc2c1cnn2C | inactive
COc1ccc(CN2CCc3nc(C4CC4)nc(-c4ccc(OC)cc4)c3CC2)cc1 | inconclusive: 56.2 µM [inhibitor, partial curve, poor fit]
O=C(NCc1ccc2c(c1)OCO2)C1CCN(C(=O)c2ncn3c2COC(c2ccccc2)C3)CC1 (stereo not drawn) | inactive
NC(=O)c1cccc(-c2cc(-c3cccnc3)c3cncn3c2)c1 | inconclusive: 11.2 µM [inhibitor, full curve, poor fit]
Cc1ccc(-n2nc(-c3c(C)nc4scc(CC(=O)Nc5ccc(F)cc5)n4c3=O)cc2C)cc1 | inconclusive: 50.1 µM [inhibitor, partial curve, poor fit]
COCCN1CCCCCC(O)c2cc(C(=O)N3CCN(c4ccccc4)CC3)ccc21 (stereo not drawn) | inconclusive: 44.7 µM [inhibitor, partial curve, poor fit]
O=C(N[C@@H]1CN(C2CCC2)C[C@H]1CO)c1cnccn1 | inactive
CC1=NS(=O)(=O)N(C)C=C1C(=O)OCc1noc(-c2ccccc2Cl)n1 | inconclusive: 39.8 µM [inhibitor, partial curve]
Cc1[nH]nc(CCC(=O)N2CC[C@H](N3CCOCC3)[C@H](CCC(=O)O)C2)c1C | inactive
CS(=O)(=O)N1CC2(CCCN2C2COC2)Cc2ccccc21 (stereo not drawn) | inactive
CNC(=O)[C@@H]1CN(C(=O)CN2CCOCC2)C[C@H]1COC | inactive
Cc1cnc(CCNC(=O)C2(c3ccccc3)CC2)n1Cc1ccccc1 | inconclusive: 50.1 µM [inhibitor, partial curve, poor fit]
Cc1ccc(-c2ccc3nnc(CNC(=O)C4(c5ccccc5)CC4)n3n2)cc1 | inconclusive: 50.1 µM [inhibitor, partial curve, poor fit]
Cc1ccc(-c2noc([C@@H]3C[C@@H](O)CN3Cc3ncc[nH]3)n2)cc1F | inconclusive: 126 µM [inhibitor, single point]
CN1c2cc(C(=O)NCc3ccccc3)ccc2C(=O)N2CCCCCC21 (stereo not drawn) | inactive
O=C(N[C@H]1[C@H](O)[C@H](O)C[C@@H]1c1ccc(C(F)(F)F)nc1)c1ccc2c(c1)OCCO2 | inactive
Cc1ccc(CN2CCC(N3CCCC(C(=O)NCCc4ccccc4)C3)CC2)o1 (stereo not drawn) | inactive
O=C1CC2(CCN(C(=O)C3CCCN(C(=O)Nc4ccccc4)C3)CC2)Oc2ccccc2N1 (stereo not drawn) | inconclusive: 50.1 µM [inhibitor, partial curve, poor fit]
